Experimental findings from paper PMC9911399, “Two distinct binding modes provide the RNA-binding protein RbFox with extraordinary sequence specificity” are described below.

The chains are these.
B1: CGGACCC (DNA:RNA)
RNA: GGGAGACCGGAAUUCAGAUUGUCCCGGACCCUUAAAUCCCGUCGUAGCCACCA
DNA 1: CAATCTGAATTCCGGTCTCCC
DNA 2: TGGTGGCTACGACGGGATT
B2: AAUCUAA (DNA:RNA)
RNA: GGGAGACCGGAAUUCAGAUUGUCCAAUCUAAUUAAAUCCCGUCGUAGCCACCA
DNA 1: CAATCTGAATTCCGGTCTCCC
DNA 2: TGGTGGCTACGACGGGATT
B3: UGAGCCA (DNA:RNA)
RNA: B1 RNA with C25U, G27A, A28G, C31A
DNA 1: CAATCTGAATTCCGGTCTCCC
DNA 2: TGGTGGCTACGACGGGATT
B4: GAAAACA (DNA:RNA)
RNA: B2 RNA with A25G, U27A, C28A, U29A, A30C
DNA 1: CAATCTGAATTCCGGTCTCCC
DNA 2: TGGTGGCTACGACGGGATT
B5: GGGUCCU (DNA:RNA)
RNA: B1 RNA with C25G, A28U, C31U
DNA 1: CAATCTGAATTCCGGTCTCCC
DNA 2: TGGTGGCTACGACGGGATT
B6: CACAGUG (DNA:RNA)
RNA: B1 RNA with G26A, G27C, C29G, C30U, C31G
DNA 1: CAATCTGAATTCCGGTCTCCC
DNA 2: TGGTGGCTACGACGGGATT
B7: AACUGUA (DNA:RNA)
RNA: B2 RNA with U27C, C28U, U29G, A30U
DNA 1: CAATCTGAATTCCGGTCTCCC
DNA 2: TGGTGGCTACGACGGGATT
B8: CUCCUGG (DNA:RNA)
RNA: B2 RNA with A25C, A26U, U27C, A30G, A31G
DNA 1: CAATCTGAATTCCGGTCTCCC
DNA 2: TGGTGGCTACGACGGGATT
B9: AAACACG (DNA:RNA)
RNA: B2 RNA with U27A, U29A, A30C, A31G
DNA 1: CAATCTGAATTCCGGTCTCCC
DNA 2: TGGTGGCTACGACGGGATT
B10: GACCAUA (DNA:RNA)
RNA: B2 RNA with A25G, U27C, U29A, A30U
DNA 1: CAATCTGAATTCCGGTCTCCC
DNA 2: TGGTGGCTACGACGGGATT
B11: GCGGUUU (DNA:RNA)
RNA: B2 RNA with A25G, A26C, U27G, C28G, A30U, A31U
DNA 1: CAATCTGAATTCCGGTCTCCC
DNA 2: TGGTGGCTACGACGGGATT
B12: CGAUCUG (DNA:RNA)
RNA: B1 RNA with G27A, A28U, C30U, C31G
DNA 1: CAATCTGAATTCCGGTCTCCC
DNA 2: TGGTGGCTACGACGGGATT
B13: CCGUAUA (DNA:RNA)
RNA: B1 RNA with G26C, A28U, C29A, C30U, C31A
DNA 1: CAATCTGAATTCCGGTCTCCC
DNA 2: TGGTGGCTACGACGGGATT
B14: CGCUCUC (DNA:RNA)
RNA: B1 RNA with G27C, A28U, C30U
DNA 1: CAATCTGAATTCCGGTCTCCC
DNA 2: TGGTGGCTACGACGGGATT
B15: UCGUUGU (DNA:RNA)
RNA: B2 RNA with A25U, A26C, U27G, C28U, A30G, A31U
DNA 1: CAATCTGAATTCCGGTCTCCC
DNA 2: TGGTGGCTACGACGGGATT
B16: UCAAGGA (DNA:RNA)
RNA: B2 RNA with A25U, A26C, U27A, C28A, U29G, A30G
DNA 1: CAATCTGAATTCCGGTCTCCC
DNA 2: TGGTGGCTACGACGGGATT
B17: CUUAAUG (DNA:RNA)
RNA: B1 RNA with G26U, G27U, C29A, C30U, C31G
DNA 1: CAATCTGAATTCCGGTCTCCC
DNA 2: TGGTGGCTACGACGGGATT
B18: GAUUGUG (DNA:RNA)
RNA: B2 RNA with A25G, C28U, U29G, A30U, A31G
DNA 1: CAATCTGAATTCCGGTCTCCC
DNA 2: TGGTGGCTACGACGGGATT
B19: CCACAGA (DNA:RNA)
RNA: B2 RNA with A25C, A26C, U27A, U29A, A30G
DNA 1: CAATCTGAATTCCGGTCTCCC
DNA 2: TGGTGGCTACGACGGGATT
B20: UCACAUU (DNA:RNA)
RNA: B2 RNA with A25U, A26C, U27A, U29A, A30U, A31U
DNA 1: CAATCTGAATTCCGGTCTCCC
DNA 2: TGGTGGCTACGACGGGATT
B21: UCCUGGG (DNA:RNA)
RNA: GGGAGACCGGAAUUCAGAUUGUCCUCCUGGGUUAAAUCCCGUCGUAGCCACCA
DNA 1: CAATCTGAATTCCGGTCTCCC
DNA 2: TGGTGGCTACGACGGGATT
B22: UUACCGC (DNA:RNA)
RNA: B1 RNA with C25U, G26U, G27A, A28C, C30G
DNA 1: CAATCTGAATTCCGGTCTCCC
DNA 2: TGGTGGCTACGACGGGATT
B23: AUCGACG (DNA:RNA)
RNA: B21 RNA with U25A, C26U, U28G, G29A, G30C
DNA 1: CAATCTGAATTCCGGTCTCCC
DNA 2: TGGTGGCTACGACGGGATT
B24: GUCAUGA (DNA:RNA)
RNA: B2 RNA with A25G, A26U, U27C, C28A, A30G
DNA 1: CAATCTGAATTCCGGTCTCCC
DNA 2: TGGTGGCTACGACGGGATT
B25: UCAUGAC (DNA:RNA)
RNA: B21 RNA with C27A, G30A, G31C
DNA 1: CAATCTGAATTCCGGTCTCCC
DNA 2: TGGTGGCTACGACGGGATT
B26: GGGGAAG (DNA:RNA)
RNA: B1 RNA with C25G, A28G, C29A, C30A, C31G
DNA 1: CAATCTGAATTCCGGTCTCCC
DNA 2: TGGTGGCTACGACGGGATT
B27: UCCCUUA (DNA:RNA)
RNA: B2 RNA with A25U, A26C, U27C, A30U
DNA 1: CAATCTGAATTCCGGTCTCCC
DNA 2: TGGTGGCTACGACGGGATT
B28: CGCCUGC (DNA:RNA)
RNA: B1 RNA with G27C, A28C, C29U, C30G
DNA 1: CAATCTGAATTCCGGTCTCCC
DNA 2: TGGTGGCTACGACGGGATT
B29: GCCGUAA (DNA:RNA)
RNA: B2 RNA with A25G, A26C, U27C, C28G
DNA 1: CAATCTGAATTCCGGTCTCCC
DNA 2: TGGTGGCTACGACGGGATT
B30: GAGAGAC (DNA:RNA)
RNA: B1 RNA with C25G, G26A, C29G, C30A
DNA 1: CAATCTGAATTCCGGTCTCCC
DNA 2: TGGTGGCTACGACGGGATT
B31: GAAACGU (DNA:RNA)
RNA: B1 RNA with C25G, G26A, G27A, C30G, C31U
DNA 1: CAATCTGAATTCCGGTCTCCC
DNA 2: TGGTGGCTACGACGGGATT

Positions count from the first letter of the chain named. The list shows a part of the results.

The target in this assay is T1, RBFOX1 RRM RbFoxmut (Fox-RRM*) (Homo sapiens, UniProt Q9NWB1 109-208, R118D;E147R;N151S;E152T).
T1 sequence: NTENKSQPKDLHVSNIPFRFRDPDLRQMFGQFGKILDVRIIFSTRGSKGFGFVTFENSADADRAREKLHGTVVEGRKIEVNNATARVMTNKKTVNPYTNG
The experiment in a line: EMSA; HiTS-Eq, 1 nM pool, 10 min; buffer printed only for the single-RNA assays: 10 mM Tris pH 7.5, 150 mM NaCl, 3.4 mM EDTA, 0.001% NP-40, 30 C. The following applies: tags: His6 N-terminal (pET28a); label: 5' 32P. An outline of the steps: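 Purified wild-type or mutant RbFox RRM at increasing concentrations was equilibrated with 1 nM of 5′-radiolabelled RNA carrying 7 randomized nucleotides for 10 min in 50 µL. Unbound RNA was separated by 8% native PAGE and sequenced. Relative association constants came from read-count changes of each RNA species compared with the control reaction, normalised to the cognate motif.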
On the technique in general: A gel shift assay detects complexes by their altered migration in electrophoresis.
Turning to B1, the binding signal is 0.0933 KA relative to UGCAUGU. Take B2: the binding signal was 0.0586 KA relative to UGCAUGU. Then B3, with 0.116 KA relative to UGCAUGU. Then B4, with 0.0743 KA relative to UGCAUGU; and B5, with 0.116 KA relative to UGCAUGU; and B6, with 0.102 KA relative to UGCAUGU. Then B7, with 0.169 KA relative to UGCAUGU; and B8, with 0.105 KA relative to UGCAUGU. Turning to B9, the binding signal was 0.0961 KA relative to UGCAUGU.

Consider B10, for which the binding signal was 0.0749 KA relative to UGCAUGU.

Take B11: the binding signal was 0.0954 KA relative to UGCAUGU. Consider B12, for which the binding signal is 0.076 KA relative to UGCAUGU. Then B13, with 0.104 KA relative to UGCAUGU. Then B14, with 0.0644 KA relative to UGCAUGU; and B15, with 0.157 KA relative to UGCAUGU. Under B16 stands 0.0635 KA relative to UGCAUGU; under B17, 0.126 KA relative to UGCAUGU. As for B18, the binding signal is 0.249 KA relative to UGCAUGU. Consider B19, for which the binding signal is 0.0901 KA relative to UGCAUGU. Under B20 stands 0.0691 KA relative to UGCAUGU; under B21, 0.0597 KA relative to UGCAUGU. As for B22, the binding signal is 0.0783 KA relative to UGCAUGU.

For the molecule B23, the binding signal was 0.0916 KA relative to UGCAUGU. Then B24, with 0.2 KA relative to UGCAUGU. Then B25, with 0.0977 KA relative to UGCAUGU; and B26, with 0.103 KA relative to UGCAUGU. Turning to B27, the binding signal was 0.0801 KA relative to UGCAUGU.

Turning to B28, the binding signal was 0.129 KA relative to UGCAUGU. Under B29 stands 0.102 KA relative to UGCAUGU; under B30, 0.0579 KA relative to UGCAUGU. Under B31 stands 0.111 KA relative to UGCAUGU.
